Some of the results follow. No stated cut-off is given here; in the data, active = 3.2 or more and inactive = the rest. The signal is at background level for most entries.
B1: ORC6_Y232 (peptide)
chain: DLTQDYEEWKR
B2: OSMR_Y689_I691T (peptide)
chain: SECCKYKTDNP
B3: OSMR_Y689_P694L (peptide)
chain: SECCKYKIDNL
B4: OTC_Y345_S340P (peptide)
chain: PLLTDYSPQLQ
B5: OTC_Y345_Y345D (peptide)
chain: SLLTDDSPQLQ
B6: P2RX7_Y291 (peptide)
chain: SLYPGYNFRYA
B7: PABPC5_Y149_G146A_YF (peptide)
chain: SKAFAYVHFDS
B8: PABPC5_Y149_YF (peptide)
chain: SKGFAYVHFDS
B9: PADI3_Y51 (peptide)
chain: PGVDIYISPNM
B10: PAH_Y166_G171A (peptide)
chain: FADIAYNYRHA
B11: PAH_Y166_H170D (peptide)
chain: FADIAYNYRDG
B12: PAH_Y166_H170D_YF (peptide)
chain: FADIAYNFRDG
B13: PAH_Y166_I164T (peptide)
chain: FADTAYNYRHG
B14: PAH_Y166_N167I (peptide)
chain: FADIAYIYRHG
B15: PAK1_Y131_Y131C (peptide)
chain: DVLEFCNSKKT
B16: PAK5_Y316_YF (peptide)
chain: HSFNSYTFPRL
B17: PAK6_Y81 (peptide)
chain: MPVDGYISGLL
B18: PAM16_Y77 (peptide)
chain: EVQKNYEHLFK
B19: PANK2_Y400_YF (peptide)
chain: SILAVYSKDNF
B20: PANK2_Y405 (peptide)
chain: YSKDNYKRVTG
B21: PARK7_Y67 (peptide)
chain: KKEGPYDVVVL
B22: PARP1_Y618_M615I (peptide)
chain: HFIKLYEEKTG
B23: PARP4_Y214_F215Y_YF (peptide)
chain: EDASEYFENFI
B24: PATJ_Y783 (peptide)
chain: EEESCYILHSS
B25: PAX2_Y73_G76S (peptide)
chain: ILGRYYETSSI
B26: PAX2_Y73_G76S_YF (peptide)
chain: ILGRFYETSSI
B27: PAX5_Y179 (peptide)
chain: SAGSSYSISGI
B28: PAX5_Y299_I301T (peptide)
chain: PGPQSYPTVTG
B29: PAX5_Y73_T75R_YF (peptide)
chain: ILGRFYERGSI
B30: PBRM1_Y672_D674E (peptide)
chain: EAVKNYTEKRG
B31: PC_Y304 (peptide)
chain: AKQVGYENAGT
B32: PC_Y304_Y304C (peptide)
chain: AKQVGCENAGT
B33: PCCA_Y143 (peptide)
chain: AVHPGYGFLSE
B34: PCCA_Y401_C398R (peptide)
chain: VERRVYAEDPY
B35: PCDH15_Y931_R929Q (peptide)
chain: FSKQIYKGMVA
B36: PDE6B_Y227_L228I_YF (peptide)
chain: IFHLSYIHNCE
B37: PDE6B_Y556 (peptide)
chain: YRRITYHNWRH

The binders below were run against SHP2 C-SH2 domain E139D (assay: enrichment score (SH2-bound / input frequency) (ratio); bacterial display of known human phosphotyrosine sites (pTyr-Var adds point mutants) read by sequencing; higher = stronger binding; tyrosines were phosphorylated by kinases first). Conditions: peptide library: pTyr-Var.
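Further: displayed peptides selected on beads carrying the immobilized SH2 domain, with library peptides lacking any tyrosine serving as negative controls.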

Binder	enrichment score
B1	inactive: 0.771
B2	inactive: 0.804
B3	inactive: 1.1
B4	inactive: 1.1
B5	inactive: 0.751
B6	inactive: 0.92
B7	inactive: 2.19
B8	inactive: 1.95
B9	inactive: 1.1
B10	inactive: 1.12
B11	inactive: 1.15
B12	inactive: 0.998
B13	inactive: 0.868
B14	inactive: 1.52
B15	inactive: 1.09
B16	inactive: 0.697
B17	inactive: 0.823
B18	inactive: 0.66
B19	inactive: 1.2

Binder	enrichment score
B20	inactive: 0.43
B21	inactive: 0.764
B22	inactive: 1.63
B23	inactive: 0.719
B24	inactive: 0.936
B25	inactive: 1.27
B26	inactive: 1.52
B27	inactive: 0.837
B28	inactive: 0.885
B29	inactive: 1.4
B30	inactive: 0.652
B31	inactive: 0.613
B32	inactive: 0.609
B33	inactive: 0.762
B34	inactive: 0.68
B35	inactive: 0.626
B36	active: 3.73
B37	inactive: 0.39

What follows are binders tested against SHP2 C-SH2 domain wild-type in the same assay as above. Conditions: peptide library: pTyr-Var.

Binder	enrichment score
B1	inactive: 0.661
B2	inactive: 0.757
B3	inactive: 0.882
B4	inactive: 0.772
B5	inactive: 0.962
B6	inactive: 0.715
B7	inactive: 1.94
B8	inactive: 1.62
B9	inactive: 0.71
B10	inactive: 0.899
B11	inactive: 0.971
B12	inactive: 0.655
B13	inactive: 0.731
B14	inactive: 1.41
B15	inactive: 0.823
B16	inactive: 0.458
B17	inactive: 0.776
B18	inactive: 0.786
B19	inactive: 1.2

Binder	enrichment score
B20	inactive: 0.554
B21	inactive: 0.804
B22	inactive: 0.761
B23	inactive: 0.717
B24	inactive: 0.929
B25	inactive: 0.863
B26	inactive: 1.32
B27	inactive: 0.775
B28	inactive: 0.575
B29	inactive: 1.03
B30	inactive: 0.718
B31	inactive: 0.508
B32	inactive: 0.533
B33	inactive: 0.83
B34	inactive: 0.43
B35	inactive: 0.563
B36	active: 3.21
B37	inactive: 0.304

The binders below were run against SHP2 N-SH2 domain L43F in the same assay as above. Conditions: peptide library: pTyr-Var.

Binder	enrichment score
B1	inactive: 0.737
B2	inactive: 0.738
B3	inactive: 1.13
B4	inactive: 0.992
B5	inactive: 0.613
B6	inactive: 0.775
B7	inactive: 1.87
B8	inactive: 1.67
B9	inactive: 0.986
B10	inactive: 0.757
B11	inactive: 1.43
B12	inactive: 0.787
B13	inactive: 0.916
B14	inactive: 1.35
B15	inactive: 0.745
B16	inactive: 0.507
B17	inactive: 0.79
B18	inactive: 0.773
B19	inactive: 1.48

Binder	enrichment score
B20	inactive: 0.42
B21	inactive: 0.856
B22	inactive: 1.39
B23	inactive: 0.859
B24	inactive: 0.872
B25	inactive: 1.19
B26	active: 3.26
B27	inactive: 0.739
B28	inactive: 0.822
B29	inactive: 1.11
B30	inactive: 0.617
B31	inactive: 0.561
B32	inactive: 0.477
B33	inactive: 0.872
B34	inactive: 0.648
B35	inactive: 0.67
B36	active: 3.21
B37	inactive: 0.327

The binders below were run against SHP2 N-SH2 domain T42A in the same assay as above. Conditions: peptide library: pTyr-Var.

Binder	enrichment score
B1	inactive: 0.611
B2	inactive: 0.551
B3	inactive: 0.76
B4	inactive: 0.829
B5	inactive: 0.698
B6	inactive: 0.929
B7	inactive: 1.8
B8	inactive: 1.63
B9	inactive: 0.716
B10	inactive: 0.764
B11	inactive: 0.842
B12	inactive: 0.727
B13	inactive: 0.636
B14	inactive: 1.14
B15	inactive: 0.708
B16	inactive: 0.48
B17	inactive: 0.655
B18	inactive: 0.513
B19	inactive: 0.906

Binder	enrichment score
B20	inactive: 0.433
B21	inactive: 0.461
B22	inactive: 1.08
B23	inactive: 0.664
B24	inactive: 0.697
B25	inactive: 0.772
B26	inactive: 1.45
B27	inactive: 0.829
B28	inactive: 0.646
B29	inactive: 1.28
B30	inactive: 0.589
B31	inactive: 0.537
B32	inactive: 0.461
B33	inactive: 0.817
B34	inactive: 0.474
B35	inactive: 0.59
B36	inactive: 2.69
B37	inactive: 0.304

Each binder was assayed against SHP2 N-SH2 domain T52S in the same assay as above. Conditions: peptide library: pTyr-Var.

Binder	enrichment score
B1	inactive: 0.864
B2	inactive: 0.893
B3	inactive: 0.765
B4	inactive: 1.09
B5	inactive: 0.804
B6	inactive: 0.743
B7	inactive: 2.9
B8	inactive: 1.59
B9	inactive: 0.982
B10	inactive: 0.872
B11	inactive: 0.89
B12	inactive: 0.686
B13	inactive: 0.962
B14	inactive: 1.34
B15	inactive: 0.74
B16	inactive: 0.573
B17	inactive: 0.731
B18	inactive: 0.697
B19	inactive: 1.49

Binder	enrichment score
B20	inactive: 0.487
B21	inactive: 0.642
B22	inactive: 1.53
B23	inactive: 0.837
B24	inactive: 0.954
B25	inactive: 1.05
B26	inactive: 3.12
B27	inactive: 0.844
B28	inactive: 0.686
B29	inactive: 1.3
B30	inactive: 0.623
B31	inactive: 0.482
B32	inactive: 0.602
B33	inactive: 1.03
B34	inactive: 0.531
B35	inactive: 0.509
B36	inactive: 2.7
B37	inactive: 0.255

Each binder was assayed against SHP2 N-SH2 domain wild-type in the same assay as above. Conditions: peptide library: pTyr-Var.

Binder	enrichment score
B1	inactive: 0.691
B2	inactive: 0.978
B3	inactive: 1.13
B4	inactive: 0.894
B5	inactive: 0.976
B6	inactive: 0.762
B7	inactive: 1.74
B8	inactive: 1.54
B9	inactive: 0.788
B10	inactive: 1.07
B11	inactive: 1.12
B12	inactive: 0.842
B13	inactive: 1.21
B14	inactive: 1.54
B15	inactive: 0.649
B16	inactive: 0.744
B17	inactive: 0.844
B18	inactive: 0.813
B19	inactive: 1.02

Binder	enrichment score
B20	inactive: 0.613
B21	inactive: 0.644
B22	inactive: 1.18
B23	inactive: 0.753
B24	inactive: 1.1
B25	inactive: 0.927
B26	inactive: 1.28
B27	inactive: 0.787
B28	inactive: 0.894
B29	inactive: 1.34
B30	inactive: 0.813
B31	inactive: 0.718
B32	inactive: 0.701
B33	inactive: 0.909
B34	inactive: 0.65
B35	inactive: 0.736
B36	inactive: 2.98
B37	inactive: 0.319

Source: the supplement of paper PMC10369915
